# In publication PMC4336329 (PLoS ONE, 2015):
# In all, about 310,000 compounds went through this assay and about 14,000 (4.5%) showed an effect of 50% or more. The effect is printed as a negative number. The list shows a part of the results.
# Target: human ether-à-go-go-related gene (hERG) potassium channel (human, UniProt Q12809)
# Assay: primary screen, population patch clamp on CHO cells stably expressing hERG
# 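Further: peak tail current of the secondary pulse compared with the same well before compound.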
# Chain of human ether-à-go-go-related gene (hERG) potassium channel (Q12809 whole entry, looked up): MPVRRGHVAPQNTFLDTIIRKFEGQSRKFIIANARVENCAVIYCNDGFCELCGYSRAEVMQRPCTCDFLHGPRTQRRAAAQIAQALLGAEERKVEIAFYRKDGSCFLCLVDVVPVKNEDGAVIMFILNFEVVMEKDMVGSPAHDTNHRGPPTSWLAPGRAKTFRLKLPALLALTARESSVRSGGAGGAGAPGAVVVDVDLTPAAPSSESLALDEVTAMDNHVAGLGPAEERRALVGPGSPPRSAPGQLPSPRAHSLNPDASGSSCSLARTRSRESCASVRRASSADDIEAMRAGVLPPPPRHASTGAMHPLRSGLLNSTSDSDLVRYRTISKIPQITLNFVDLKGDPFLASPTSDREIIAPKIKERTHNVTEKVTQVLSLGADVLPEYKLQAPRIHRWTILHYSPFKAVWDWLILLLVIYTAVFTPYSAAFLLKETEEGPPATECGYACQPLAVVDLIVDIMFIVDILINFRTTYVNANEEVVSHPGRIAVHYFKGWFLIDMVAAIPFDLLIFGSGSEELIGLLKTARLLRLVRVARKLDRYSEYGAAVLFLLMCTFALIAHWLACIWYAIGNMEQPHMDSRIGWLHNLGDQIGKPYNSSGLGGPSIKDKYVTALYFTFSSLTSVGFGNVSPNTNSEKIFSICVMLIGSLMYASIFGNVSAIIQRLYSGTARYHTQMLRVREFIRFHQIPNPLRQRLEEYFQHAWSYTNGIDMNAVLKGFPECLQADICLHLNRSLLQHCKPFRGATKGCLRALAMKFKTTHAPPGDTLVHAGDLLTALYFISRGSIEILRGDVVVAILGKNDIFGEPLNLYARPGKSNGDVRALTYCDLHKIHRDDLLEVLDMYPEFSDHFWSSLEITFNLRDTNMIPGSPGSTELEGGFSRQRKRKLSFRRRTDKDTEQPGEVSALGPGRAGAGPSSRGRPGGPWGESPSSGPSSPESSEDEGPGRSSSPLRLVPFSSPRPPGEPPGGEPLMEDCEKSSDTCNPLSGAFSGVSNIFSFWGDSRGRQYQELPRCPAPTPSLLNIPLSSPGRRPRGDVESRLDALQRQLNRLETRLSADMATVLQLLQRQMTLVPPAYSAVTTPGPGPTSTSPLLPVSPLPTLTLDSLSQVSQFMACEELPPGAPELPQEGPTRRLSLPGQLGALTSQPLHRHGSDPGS
row,Compound,"hERG current change (%, negative = inhibition) at 10uM"
1,CCCn1cc(CN2CCC(n3nccc3NC(=O)c3ccc4c(c3)OCO4)CC2)c(C)n1,-5.62%
2,Cc1ccc(C)c(N(CC(=O)NCCSCc2ccco2)S(C)(=O)=O)c1,8.7%
3,COCCN(C(=S)Nc1c(C)cccc1C)C(C)c1ccco1 (centres unmarked),-10.7%
4,COc1ccc(Cl)cc1N(CC(=O)N/N=C/c1ccc(OC(C)C)cc1)S(=O)(=O)c1ccc(C)c([N+](=O)[O-])c1,21.4%
5,CCOc1ccc(N(C(C)C(=O)NC(C)CC)S(C)(=O)=O)cc1 (centres unmarked),6.99%
6,CSc1nnc(-c2cc(Br)ccc2N=Cc2c(C)[nH]n(-c3ccccc3)c2=O)c(=O)[nH]1,-19.2%
7,C#CCNC(=O)/C=C/c1ccc(OC)cc1,0.687%
8,O=C(CSc1n[nH]c(=O)n1C1CC1)c1c[nH]c2ccccc12,9.29%
9,Cc1noc(C)c1S(=O)(=O)N1CCC(C(N)=O)CC1,11.9%
10,COc1cccc(-n2c(C)cc(/C=C3\C(=N)N4N=C(CC(=O)N5CCOCC5)SC4=NC3=O)c2C)c1,-5.1%
11,Cn1c(N)c(C(=O)COC(=O)C23CC4CC(CC(C4)C2)C3)c(=O)n(C)c1=O,-22.6%
12,CN(C)CCC(=O)NCC1OCCc2ccccc21 (centres unmarked),-2.16%
13,COc1ccc(NC(=O)c2ccc(Cl)c(NC(=O)c3ccncc3)c2)cc1,-36.1%
14,CCOC(=O)C1C(c2ccc(O)c(OC)c2)NC(=O)NC1(O)C(F)(F)F (centres unmarked),13.7%
15,Cc1cccn2c(CN3CCSCC3)c(C(=O)N3CCOCC3)nc12,0.407%
16,Cc1ccc(NS(=O)(=O)c2ccc(OCC(=O)N3CCOCC3)cc2)cc1,-2.62%
17,COCCn1c(SCC(=O)Nc2nc(C)c(Cl)cc2Cl)nc2ccccc21,-47.3%
18,O=C(COC(=O)C1CC2C=CC1C2)NCc1ccc(F)cc1 (centres unmarked),4.12%
19,Cc1nc(=O)c(-c2ccccc2)c(C)n1-c1ccccc1,14.4%

row,Compound,"hERG current change (%, negative = inhibition) at 10uM"
1,O=C(Nc1ccsc1C(=O)NC1CCCCC1)c1ccccc1,7.83%
2,O=C(COC(=O)c1cccc(C(=O)OCC(=O)c2ccc(Br)cc2)n1)c1ccc(Br)cc1,1.29%
3,CSCC[C@H](NC(=O)C1CCC(CNC(=O)[C@@H]2CCCN2C(=O)OC(C)(C)C)CC1)C(=O)O (some centres unmarked),4.71%
4,CC(C)(C)Sc1ccc(N)nc1.Cl,-2.85%
5,CC1CCCN(C(=O)c2ccc3c(c2NCCO)C(=O)c2ccccc2C3=O)C1 (centres unmarked),-22%
6,Oc1ccccc1N1CCN(C(=S)NCCc2ccccc2)CC1,-2.16%
7,COc1cc(CCC(=O)Nc2cnc3ccccc3c2)cc(OC)c1OC,-0.103%
8,CC1CCN(C(=O)N2c3ccccc3Sc3ccccc32)CC1,-5.69%
9,COc1cc(NC(=O)COC(=O)Cc2ccsc2)cc(OC)c1,7.86%
10,CCC(C)N1C(=O)/C(=C\c2ccc(N3CCCCCC3)cc2)C(=O)NC1=S (centres unmarked),-4.65%
11,O=C(Nc1ccc(F)cc1)Nc1cc(OCC(F)(F)F)cc(OCC(F)(F)F)c1,7.59%
12,CC1CCC(NC(=O)CN2CCN(S(=O)(=O)c3cccs3)CC2)CC1 (centres unmarked),-16.5%
13,CC12CCC(=O)N1C(C(=O)N1CCN(S(=O)(=O)c3cccc(C(F)(F)F)c3)CC1)CS2 (centres unmarked),-20.5%
14,COc1ccc(C2(C)NC(=O)N(CC(=O)Nc3ccc4c(c3)OCO4)C2=O)cc1OC (centres unmarked),-8.35%
15,Cc1cccc(C)c1OCc1n[nH]c(=S)n1N,15.5%
16,Cc1cc(Cl)ccc1OC(C)C(=O)Nc1ccccc1N1CCOCC1 (centres unmarked),-10%
17,O=C(NC1CCCCC1)C(c1cccnc1)N(C(=O)c1csnn1)c1ccccc1F (centres unmarked),-13.9%
18,CCN1CCCC(CO)(Cc2ccccc2)C1 (centres unmarked),13.3%
19,Cc1ccc(C)c(NS(=O)(=O)c2c(C)[nH]c(C)c2C(=O)N2CCCCC2)c1,-6.67%

row,Compound,"hERG current change (%, negative = inhibition) at 10uM"
1,Cc1ccc(S(=O)(=O)CCC(=O)Nc2nnc(-c3cccs3)o2)cc1,-6.77%
2,COc1ccc(Cn2cc([N+](=O)[O-])nc2C)cc1[N+](=O)[O-],-2.26%
3,COCCn1c(-c2cccs2)csc1=Nc1cccnc1,-15.3%
4,Cc1ccc2cc3cc(C(=O)N4CC(C)CC(C)C4)oc3nc2c1 (centres unmarked),1.38%
5,CC(C)c1cc2cc3ccc(=O)oc3cc2o1,5.93%
6,CCCn1c(-c2ccncc2)n[nH]c1=S,11.3%
7,COc1cccc(NC(=O)CSc2nnc(Cc3cccn3C)n2-c2ccc(F)cc2)c1,-15.5%
8,Clc1ncn(CCOc2ccccc2)c1Cl,-0.142%
9,O=C(Cn1cc(C(=O)c2ccco2)c2ccccc21)NC1CC1,-0.551%
10,COCCN(C(=O)COC(=O)c1cnc(C)cn1)c1c(N)n(Cc2ccccc2)c(=O)[nH]c1=O,-4.85%
11,Cc1ccc(NC(=O)COc2ccc(N3CC(C(N)=O)CC3=O)cc2)c(C)c1 (centres unmarked),6.84%
12,O=C(COc1ccccc1)Nc1nc(-c2ccncc2)cs1,-7.97%
13,CC(CC(=O)N1CCN(S(=O)(=O)c2ccc([N+](=O)[O-])cc2)CC1)c1ccccc1 (centres unmarked),-67.8%
14,Cn1nc(-c2ccccc2F)c2cc(C(=O)N3CCN(C(=O)c4ccco4)CC3)sc21,-57.2%
15,O=C1c2ccccc2N2C(=O)c3ccccc3C2N1O (centres unmarked),22.5%
16,CCc1cc(CNC(=O)CC2C(=O)NCCN2Cc2c(F)cccc2Cl)on1 (centres unmarked),17.5%
17,Cc1ccc(N/N=C(/Sc2nnnn2-c2ccccc2)C(=O)c2ccccc2)cc1,4.62%
18,Cc1cc(Cl)ccc1NC(=O)CSc1n[nH]c(N)n1,19.7%
